Cytotoxicity call and growth inhibition call data for 26 molecules are collected here from the antibiotic and cytotoxicity screens of Wong et al. (2023).

One assay concerns HSkMC. The experiment in a line: cytotoxicity call (relative viability < 0.9). The following applies: 10 µM.
The subject of another assay is HepG2. The experiment in a line: cytotoxicity call (relative viability < 0.9). The following applies: 10 µM.
The next assay deals with S. aureus RN4220. The experiment in a line: growth inhibition call (relative growth <= 0.2). The following applies: 50 µM.

Each structure is given as a SMILES string. The list shows a part of the results.

Consider `COC(=O)C1=CO[C@@H](O[C@@H]2O[C@H](CO)[C@@H](O)[C@H](O)[C@H]2O)[C@@H]2[C@@H](C)[C@@H](O)C[C@H]12`, for which the cytotoxicity call in the assay with HSkMC and in the assay with HepG2 was “inactive” in each case. The growth inhibition call with S. aureus RN4220 is “inactive”.

Consider `Cc1ccc(S(=O)(=O)N(C)C[C@@H]2Oc3c(NS(=O)(=O)c4ccccc4)cccc3C(=O)N([C@H](C)CO)C[C@@H]2C)cc1`, for which the cytotoxicity call with HSkMC and in the assay on HepG2 was “inactive” in each case. Further, in the assay with S. aureus RN4220, the growth inhibition call is “inactive”.

For `COCCOC(=O)N1C(=O)[C@@]2(c3ccccc31)[C@H](c1ccc(OCCO)cc1)N1[C@H](c3ccccc3)[C@H](c3ccccc3)OC(=O)[C@H]1[C@@H]2C(=O)N1CCCCCCC1`, the cytotoxicity call in the assay on HSkMC and in the assay on HepG2 was “inactive” each time. For the same molecule, in the assay with S. aureus RN4220, the growth inhibition call was “inactive”.

Turning to `CS(=O)(=O)NC[C@@]12COC[C@H]1CN(C(=O)c1cnccn1)C2`, the cytotoxicity call with HSkMC and in the assay with HepG2 was “inactive” throughout. In addition, in the assay with S. aureus RN4220, the growth inhibition call is “inactive”.

On to `C[C@H]1CN([C@@H](C)CO)C(=O)c2cccc(NC(=O)CCCCCC(=O)Nc3ccccc3N)c2O[C@H]1CN(C)C(=O)Nc1cccc2ccccc12`, for which the cytotoxicity call in the assay on HSkMC and with HepG2 was “inactive” in each case. In addition, the growth inhibition call in the assay with S. aureus RN4220 is “inactive”.

As for `C[C@H](CO)N1C[C@H](C)[C@H](CN(C)Cc2ccc(C(F)(F)F)cc2)OCCCC[C@H](C)Oc2ccc(NC(=O)Nc3ccc(C(F)(F)F)cc3)cc2C1=O`, the cytotoxicity call in the assay on HSkMC is “inactive”. In addition, the cytotoxicity call with HepG2 is “active”. For the same molecule, the growth inhibition call with S. aureus RN4220 is “inactive”.

For the molecule `C[C@@H]1CN([C@H](C)CO)C(=O)CCCn2cc(nn2)CO[C@@H]1CN(C)S(=O)(=O)c1ccc2ccccc2c1`, the cytotoxicity call with HSkMC and with HepG2 was “inactive” each time. Besides, in the assay with S. aureus RN4220, the growth inhibition call is “inactive”.

With `C[C@@H]1CCCCO[C@@H](CN(C)S(=O)(=O)c2ccccc2)[C@@H](C)CN([C@@H](C)CO)C(=O)c2cc(NS(=O)(=O)c3ccc(Cl)cc3)ccc2O1`, the cytotoxicity call with HSkMC and in the assay with HepG2 was “inactive” throughout. Also, the growth inhibition call in the assay on S. aureus RN4220 was “inactive”.

In the case of `C[C@@H]1CN([C@@H](C)CO)C(=O)c2cc(NS(=O)(=O)c3cn(C)cn3)ccc2O[C@H]1CN(C)CC1CC1`, the cytotoxicity call with HSkMC and in the assay with HepG2 was “inactive” each time. In the assay with S. aureus RN4220, the growth inhibition call is “inactive”.

As to `C[C@H](CO)N1C[C@H](C)[C@H](CN(C)Cc2ccc(Cl)c(Cl)c2)Oc2ccc(NC(=O)CCC(F)(F)F)cc2CC1=O`, the cytotoxicity call with HSkMC and with HepG2 was “inactive” each time. The growth inhibition call in the assay with S. aureus RN4220 was “inactive”.

As to `C[C@@H]1CN([C@H](C)CO)C(=O)c2cc(NS(C)(=O)=O)ccc2O[C@H]1CN(C)Cc1ccc(C(=O)Nc2ccccc2N)cc1`, the cytotoxicity call in the assay on HSkMC and with HepG2 was “inactive” each time. The growth inhibition call in the assay with S. aureus RN4220 is “inactive”.

Take `COc1ccc2c3c(n(c2c1)C)[C@@H](CO)N(C[C@]13CN(C1)C(=O)c1ccccn1)S(=O)(=O)c1ccc(cc1)C`: the cytotoxicity call in the assay with HSkMC and with HepG2 was “inactive” each time. Also, the growth inhibition call in the assay with S. aureus RN4220 is “inactive”.

`C[C@@H]1CCCCO[C@H](CN(C)C(=O)c2ccncc2)[C@H](C)CN([C@@H](C)CO)C(=O)c2cc(NC(=O)NC3CCCCC3)ccc2O1`: the cytotoxicity call in the assay on HSkMC and with HepG2 was “inactive” throughout. For the same molecule, in the assay on S. aureus RN4220, the growth inhibition call is “inactive”.

Take `COCC#Cc1ccc2c(c1)O[C@@H](CN(C)S(=O)(=O)c1cccc(OC)c1)[C@@H](C)CN([C@@H](C)CO)S2(=O)=O`: the cytotoxicity call in the assay on HSkMC and in the assay with HepG2 was “inactive” throughout. The growth inhibition call with S. aureus RN4220 is “inactive”.

Consider `CC(C)C#Cc1ccc2c(c1)O[C@@H](CN(C)C(=O)c1cccc(F)c1)[C@H](C)CN([C@@H](C)CO)S2(=O)=O`, for which the cytotoxicity call in the assay with HSkMC and in the assay on HepG2 was “inactive” throughout. For the same molecule, the growth inhibition call with S. aureus RN4220 is “inactive”.

As for `C[C@@H]1CN([C@@H](C)CO)S(=O)(=O)c2ccc(-c3cncnc3)cc2O[C@H]1CN(C)C(=O)c1cccc(F)c1`, the cytotoxicity call in the assay on HSkMC and in the assay with HepG2 was “inactive” throughout. Besides, the growth inhibition call in the assay on S. aureus RN4220 was “inactive”.

On to `C[C@@H]1CCCCO[C@@H](CN(C)C(=O)CCC(F)(F)F)[C@@H](C)CN([C@H](C)CO)C(=O)c2cc(NC(=O)c3ccccc3)ccc2O1`, for which the cytotoxicity call in the assay on HSkMC and in the assay on HepG2 was “inactive” throughout. Also, in the assay on S. aureus RN4220, the growth inhibition call was “inactive”.

Consider `C[C@H]1CN([C@@H](C)CO)C(=O)c2cc(-c3ccc(C(=O)N(C)C)cc3)cnc2O[C@@H]1CN(C)C(=O)c1cccnc1`, for which the cytotoxicity call with HSkMC and with HepG2 was “inactive” each time. Further, in the assay with S. aureus RN4220, the growth inhibition call was “inactive”.

Turning to `Cc1ccc(S(=O)(=O)Nc2ccc3c(c2)C(=O)N([C@H](C)CO)C[C@H](C)[C@@H](CN(C)C(=O)Nc2ccc(C(F)(F)F)cc2)OCCCC[C@@H](C)O3)cc1`, the cytotoxicity call in the assay with HSkMC and in the assay on HepG2 was “inactive” each time. Further, the growth inhibition call in the assay on S. aureus RN4220 was “inactive”.

Take `CN(C)CC(=O)N[C@H]1CC[C@@H](CC(=O)O)O[C@H]1CO`: the cytotoxicity call in the assay on HSkMC and in the assay on HepG2 was “inactive” each time. For the same molecule, the growth inhibition call in the assay on S. aureus RN4220 is “inactive”.

As for `O=C(CCCCCNC(=O)OCc1ccc(CO[C@H]2C[C@@H](c3ccc(Br)cc3)C=C(C(=O)N3CCN(Cc4ccc5c(c4)OCO5)CC3)O2)cc1)NO`, the cytotoxicity call in the assay on HSkMC and in the assay on HepG2 was “inactive” each time. Also, the growth inhibition call with S. aureus RN4220 is “inactive”.

In the case of `O=C(NCc1ccccc1)C1=C[C@H](c2ccc3c(c2)Cc2ccccc2-3)C[C@H](OCc2ccc(CO)cc2)O1`, the cytotoxicity call in the assay on HSkMC and with HepG2 was “inactive” in each case. Further, the growth inhibition call in the assay on S. aureus RN4220 was “inactive”.

For the molecule `C[C@H]1CN([C@@H](C)CO)C(=O)c2cc(NS(C)(=O)=O)ccc2O[C@H]1CN(C)C(=O)Nc1ccc(C(F)(F)F)cc1`, in the assay on HSkMC (human skeletal muscle cells), the cytotoxicity call was “inactive”. In the assay on HepG2, the cytotoxicity call was “active”. In the assay on S. aureus RN4220, the growth inhibition call is “inactive”.

For the molecule `Cc1ccc(S(=O)(=O)N(C)C[C@@H]2OCCCC[C@H](C)Oc3ccc(NS(=O)(=O)c4ccc(Cl)cc4)cc3C(=O)N([C@H](C)CO)C[C@@H]2C)cc1`, the cytotoxicity call in the assay with HSkMC and in the assay with HepG2 was “inactive” in each case. Also, the growth inhibition call with S. aureus RN4220 was “inactive”.

In the case of `Cc1ccc(S(=O)(=O)N(C)C[C@@H]2Oc3c(NC(=O)C4CC4)cccc3C(=O)N([C@H](C)CO)C[C@@H]2C)cc1`, the cytotoxicity call with HSkMC and in the assay with HepG2 was “inactive” in each case. Besides, the growth inhibition call in the assay with S. aureus RN4220 is “inactive”.

In the case of `CN(C)CCCNC(=O)C[C@H]1CC[C@@H]2[C@@H](COc3ccc(NC(=O)c4cccc(F)c4)cc3C(=O)N2C)O1`, the cytotoxicity call in the assay with HSkMC and in the assay with HepG2 was “inactive” in each case. Moreover, the growth inhibition call with S. aureus RN4220 is “inactive”.
